# The whole screen tested about 420,000 compounds, of which about 50,000 (12%) were called active. Inconclusive results, whose numbers are uncertain, are shown with a selection of clear calls. Calls come from the whole dose curve; as a rule, active = well fitted inhibition curve with a large enough effect; inconclusive = small, poorly fitted or top-dose-only effect; inactive = flat fitted curve, though single readings scatter. No potency is given beside an inconclusive call; the fits are too rough.
# Test: qHTS for Inhibitors of human tyrosyl-DNA phosphodiesterase 1 (TDP1): qHTS in cells in presence of CPT; note: nearly all actives have a fitted effect of over 55% in size
# Conditions: chicken DT40 Tdp1-/-;hTDP1 cells + 20 nM CPT, ATP luminescence, 48 h; activity change, negative = growth inhibition: at 46.2 µM (top of the series) unless noted
# How it was run: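 Chicken DT40 Tdp1-/- cells stably complemented with human TDP1 were seeded at 400 cells/well in medium containing 20 nM camptothecin, exposed to pin-transferred compounds, and grown at 37 °C for at least 48 hr. Viability was read as ATP luminescence.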
# % is set by controls: 0 for no effect and ±100 for the full control effect; potency is the fitted concentration of half-maximal effect; tags give direction and shape of the fitted curve.
SMILES,Potency,"activity change, negative = growth inhibition"
COc1ccc(S(=O)(=O)Nc2ccccn2)cc1,inactive,–
O=C(COC(=O)c1ccc2c(c1)C(=O)N(c1cccc3ncccc13)C2=O)c1ccc(Cl)cc1,"inconclusive [inhibitor, single point]",–
COc1ccc(S(=O)(=O)Nc2cccc3c2O[C@H](CN(C)S(=O)(=O)c2cccs2)[C@@H](C)CN([C@H](C)CO)C3=O)cc1,–,inconclusive: -32.3% [inhibitor]
COc1ccc(NC(=O)c2cc(C3CCCCN3S(=O)(=O)Cc3ccccc3)on2)cn1 (stereo not drawn),inactive,–
Cc1ccc(C2C=C(c3ccc(Cl)cc3)Nc3nc(NS(=O)(=O)c4ccccc4)nn32)cc1 (stereo not drawn),inactive,–
CCc1nc2c(OCCOc3ccc(F)cc3)cccn2c1N(C)C(=O)c1ccccc1F,"inconclusive [inhibitor, single point]",–
O=C(NC(c1ccccc1)c1ccc2ccccc2n1)C1CCN(Cc2ccc(Oc3ccccc3)cc2)CC1 (stereo not drawn),"inconclusive [inhibitor, single point]",–
COc1ccc(CN(C)CC(=O)Nc2ccccc2C(F)(F)F)cc1,"inconclusive [inhibitor, single point]",–
CCCC(C(=O)NC1CCCCC1)N(Cc1ccco1)C(=O)CNS(=O)(=O)c1ccccc1 (stereo not drawn),"inconclusive [inhibitor, single point]",–
COc1cccc(OCc2cc(C(=O)N(C)Cc3nc4ccccc4[nH]3)no2)c1,"inconclusive [inhibitor, partial curve]",–
COc1cc(CCN(C(=O)c2cc3ccccc3[nH]2)C(C)c2nc3ccccc3[nH]2)cc(OC)c1 (stereo not drawn),"inconclusive [inhibitor, single point]",–
O=[N+]([O-])c1ccc2nc(-c3ccc(Cl)cc3)n(OCc3ccccc3)c2c1,inactive,–
CCN(CC)C(=O)c1c(NC(=O)c2cccc(C)c2)sc2c1CCC(C)C2 (stereo not drawn),active: 23.1 µM,–
CCCCc1nnc(SCc2cc(=O)c3cc(F)ccc3[nH]2)n1C,"inconclusive [inhibitor, partial curve]",–
COc1ccc(-c2cc(C(F)(F)F)nc(SCCC(=O)Nc3ccc(OC)c(OC)c3)n2)cc1,active: 13 µM,–
COc1ccc(S(=O)(=O)N2CCC(C(=O)Nc3ccccc3N3CCCC3)CC2)cc1OC,"inconclusive [inhibitor, partial curve]",–
COc1ccc(Cc2c(-c3ccc(OC)c(OC)c3)nc3c(C)cc(Br)cn23)c(C)c1,active: 1.16 µM,–
CN(CCc1ccccc1)C1CCCN(S(=O)(=O)N(C)C)C1 (stereo not drawn),inactive,–
